# Reference: a collection of fitness landscapes (doi:10.1038/s41467-024-54723-y)
# Over roughly 18,000 sequences, “TetR repression strength (sort-seq, GFP reporter)” has its median near 0.23; the highest 2% begin near 0.68. Some of the results follow.
# Biological target: TetR (class B, Tn10) (UniProt P04483)
# Assay: TetR repression strength (sort-seq, GFP reporter) (relative to tetO2 = 1); higher = stronger repression
# Conditions: E. coli
# Method in brief: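 E. coli SIG10-MAX carried a low-copy plasmid library with eight randomized operator positions between a constitutive promoter and sfGFP, with TetR constitutively expressed. Cells grew 5 h at 37 °C in LB with 50 µg/mL chloramphenicol, then 10^6 cells were FACS-sorted into 13 fluorescence bins, each Illumina-sequenced. Repression strength is the top bin index plus one minus the read-weighted mean bin, divided by the wild-type operator value. Three independent transformations; variants with ≥30 reads in all replicates and CV ≤0.5 were averaged.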
# UniProt P04483, sequence (P04483 whole entry): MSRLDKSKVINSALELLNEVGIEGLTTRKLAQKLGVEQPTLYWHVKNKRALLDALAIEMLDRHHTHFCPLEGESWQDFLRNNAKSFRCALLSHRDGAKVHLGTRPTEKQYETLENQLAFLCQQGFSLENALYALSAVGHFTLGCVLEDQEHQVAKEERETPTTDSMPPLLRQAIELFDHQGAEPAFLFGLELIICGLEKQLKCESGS
row,Sequence,TetR repression strength
1,TCCCATGTAGTTTAGGAGA,0.19
2,TCCCAAAAAGTGATAGAGA,0.582
3,TCCCTATAAGTCGGGGAGA,0.109
4,TCCCCCAAAGTGTGAGAGA,0.166
5,TCCCTCGGAGTACGCGAGA,0.161
6,TCCCGTAAAGTACGGGAGA,0.132
7,TCCCGGGAAGTACTGGAGA,0.298
8,TCCCCGGAAGTCCTGGAGA,0.365
9,TCCCGATGAGTTATGGAGA,0.269
10,TCCCTATTAGTCTAAGAGA,0
11,TCCCGGTTAGTTGGGGAGA,0.298
12,TCCCAATAAGTTATAGAGA,0.47
13,TCCCCCTTAGTCAAAGAGA,0.318
14,TCCCTGACAGTCTGGGAGA,0.155
15,TCCCAGCAAGTCATGGAGA,0.401
16,TCCCGGAGAGTTACAGAGA,0.245
17,TCCCAGTGAGTACGTGAGA,0.262
18,TCCCGGCAAGTCAAGGAGA,0.399
19,TCCCTTGCAGTATGTGAGA,0.109
20,TCCCGCGCAGTGGATGAGA,0.352
21,TCCCGCTAAGTAACAGAGA,0.429
22,TCCCCGGTAGTCGAAGAGA,0.143
23,TCCCCGTAAGTCCCCGAGA,0.32
24,TCCCGAGGAGTATCTGAGA,0.403
25,TCCCGGATAGTATTAGAGA,0.202
26,TCCCAGGCAGTGTATGAGA,0.188

row,Sequence,TetR repression strength
1,TCCCTGTGAGTGTGAGAGA,0
2,TCCCGGGGAGTCACCGAGA,0.206
3,TCCCTCTGAGTACTTGAGA,0.226
4,TCCCGACAAGTCGGGGAGA,0.215
5,TCCCAGAGAGTGTACGAGA,0.124
6,TCCCACCCAGTGTAAGAGA,0.312
7,TCCCAGAGAGTGCGGGAGA,0.251
8,TCCCAGGCAGTTGACGAGA,0.698
9,TCCCTGAGAGTCCGTGAGA,0.183
10,TCCCATACAGTTGACGAGA,0.321
11,TCCCGGATAGTCTGGGAGA,0.217
12,TCCCATCAAGTTGGAGAGA,0.381
13,TCCCTCCCAGTATGGGAGA,0.184
14,TCCCTAAAAGTGACGGAGA,0.0201
15,TCCCGCCCAGTTGCGGAGA,0.222
16,TCCCGGTAAGTAGGGGAGA,0.272
17,TCCCTCGGAGTGGGGGAGA,0.219
18,TCCCTCAAAGTACGGGAGA,0.257
19,TCCCAGCTAGTTCATGAGA,0.245
20,TCCCTCTGAGTTGGGGAGA,0.322
21,TCCCGACTAGTGGAAGAGA,0.336
22,TCCCTAGCAGTTGGGGAGA,0.0902
23,TCCCACGAAGTGCCGGAGA,0.305
24,TCCCAGTTAGTGGGAGAGA,0.136
25,TCCCTTTGAGTGTTGGAGA,0.212
26,TCCCGGTAAGTGCGGGAGA,0.209

row,Sequence,TetR repression strength
1,TCCCAGCGAGTACGGGAGA,0.188
2,TCCCTGGCAGTGTCCGAGA,0.314
3,TCCCTAGTAGTGACGGAGA,0.227
4,TCCCGTTAAGTTGCTGAGA,0.517
5,TCCCTCATAGTCAAAGAGA,0.455
6,TCCCGGGTAGTCAGTGAGA,0.145
7,TCCCAGGTAGTAAGCGAGA,0.225
8,TCCCCGGCAGTATGCGAGA,0.336
9,TCCCTAGCAGTGAGGGAGA,0.168
10,TCCCGGACAGTGGGGGAGA,0.256
11,TCCCAGGCAGTGCCTGAGA,0.0998
12,TCCCTGCTAGTGAAAGAGA,0.334
13,TCCCTTCGAGTGGGTGAGA,0.47
14,TCCCATACAGTGGGTGAGA,0.196
15,TCCCTGGCAGTGGGCGAGA,0.144
16,TCCCTGACAGTAGTCGAGA,0.128
17,TCCCTGATAGTGGGGGAGA,0.0581
18,TCCCCTTGAGTGCACGAGA,0.425
19,TCCCGGTAAGTCTCGGAGA,0.256
20,TCCCGGCCAGTAACCGAGA,0.327
21,TCCCTCGGAGTACGAGAGA,0.137
22,TCCCATCGAGTGTCAGAGA,0.253
23,TCCCGCAAAGTCCAAGAGA,0.488
24,TCCCCCGCAGTGCGTGAGA,0.0304
25,TCCCGGTGAGTGTAGGAGA,0.156
26,TCCCCAGGAGTCCTAGAGA,0.235

row,Sequence,TetR repression strength
1,TCCCATGCAGTGAGGGAGA,0.441
2,TCCCATTTAGTCAGGGAGA,0.191
3,TCCCTAGGAGTCAGGGAGA,0.0522
4,TCCCGCTGAGTCCGGGAGA,0.401
5,TCCCGGCAAGTCAGTGAGA,0.184
6,TCCCTCGTAGTATGTGAGA,0.282
7,TCCCTTTTAGTAAGTGAGA,0.148
8,TCCCCGATAGTATGCGAGA,0.157
9,TCCCTGTGAGTGACGGAGA,0.115
10,TCCCTCCAAGTTGCAGAGA,0.424
11,TCCCGCGCAGTTCGAGAGA,0.356
12,TCCCGGGAAGTACACGAGA,0.0718
13,TCCCGCTAAGTAGCTGAGA,0.33
14,TCCCGAACAGTTCTAGAGA,0.207
15,TCCCTTTAAGTGGTCGAGA,0.104
16,TCCCTTGGAGTGCCAGAGA,0.296
17,TCCCATCGAGTCCGTGAGA,0.443
18,TCCCTGTTAGTACGCGAGA,0.182
19,TCCCAGAGAGTACCTGAGA,0.128
20,TCCCATCTAGTCACGGAGA,0.181
21,TCCCGATAAGTCTGGGAGA,0.317
22,TCCCTGGTAGTAGAAGAGA,0.331
23,TCCCCGCCAGTCGGTGAGA,0.179
24,TCCCACGGAGTCTCGGAGA,0.166
25,TCCCGTGCAGTGTTAGAGA,0.202
26,TCCCATAGAGTGGTGGAGA,0.198

row,Sequence,TetR repression strength
1,TCCCTCGTAGTGCCGGAGA,0.133
2,TCCCGAGTAGTCGCTGAGA,0.319
3,TCCCATCGAGTGATCGAGA,0.294
4,TCCCCATTAGTTCTCGAGA,0.407
5,TCCCAACCAGTCGGAGAGA,0.0864
6,TCCCCTAGAGTGGGGGAGA,0.195
7,TCCCTATAAGTCCGCGAGA,0.331
8,TCCCCTCAAGTTGAAGAGA,0.124
9,TCCCGCGCAGTGCTAGAGA,0.282
10,TCCCTCTTAGTTGATGAGA,0.104
11,TCCCTAAGAGTATTGGAGA,0.271
12,TCCCTGTGAGTCCTCGAGA,0.489
13,TCCCGGGGAGTCAGGGAGA,0.219
14,TCCCGCTGAGTTACGGAGA,0.652
15,TCCCAAGGAGTCTTGGAGA,0.102
16,TCCCCGGAAGTGGGGGAGA,0.27
17,TCCCGCGTAGTTTTTGAGA,0.264
18,TCCCTTGTAGTGGGAGAGA,0.0318
19,TCCCAACGAGTCATGGAGA,0.199
20,TCCCGCCGAGTGCCCGAGA,0.406
21,TCCCTCAAAGTCCAGGAGA,0.237
22,TCCCTTTGAGTGATGGAGA,0.133
23,TCCCAACAAGTGTTCGAGA,0.0254
24,TCCCCCGGAGTGCGGGAGA,0.0954
25,TCCCTGCAAGTCCGAGAGA,0.104
26,TCCCCGCGAGTGACAGAGA,0.569

row,Sequence,TetR repression strength
1,TCCCGAGGAGTGGGTGAGA,0.351
2,TCCCGGGGAGTTCCGGAGA,0.18
3,TCCCGTACAGTCATCGAGA,0.0915
4,TCCCCCTAAGTGGGCGAGA,0.265
5,TCCCGTCGAGTACCCGAGA,0.0284
6,TCCCGGTTAGTATAGGAGA,0.141
7,TCCCTGCCAGTTCCAGAGA,0.368
8,TCCCGAAGAGTTGTTGAGA,0.233
9,TCCCGTCAAGTAATCGAGA,0.0648
10,TCCCCGTGAGTGAAGGAGA,0.297
11,TCCCCAGGAGTTCGGGAGA,0.0537
12,TCCCGATAAGTACTGGAGA,0.13
13,TCCCGAAGAGTTATGGAGA,0.272
14,TCCCACGAAGTGAGGGAGA,0.157
15,TCCCTGCTAGTTGAGGAGA,0.3
16,TCCCAAATAGTGCGTGAGA,0.258
17,TCCCTAAAAGTGGCAGAGA,0.0494
18,TCCCCCTAAGTGCAAGAGA,0.426
19,TCCCTACAAGTGGTAGAGA,0.432
20,TCCCTATTAGTTTAGGAGA,0.276
21,TCCCCTAGAGTCTCAGAGA,0.0331
22,TCCCTTCAAGTCATTGAGA,0.0199
23,TCCCGTAAAGTAGTGGAGA,0.086
24,TCCCGCCTAGTGGATGAGA,0.194
25,TCCCGTGTAGTCTGTGAGA,0.111
26,TCCCTAGAAGTAAAAGAGA,0.0805

row,Sequence,TetR repression strength
1,TCCCGTCTAGTGCATGAGA,0.359
2,TCCCAAGGAGTAGAAGAGA,0.327
3,TCCCGTTGAGTAGACGAGA,0.248
4,TCCCTGGGAGTCGGCGAGA,0.191
5,TCCCTACAAGTGCGTGAGA,0.408
6,TCCCTTCTAGTGATTGAGA,0.29
7,TCCCCCCAAGTAGGGGAGA,0.172
8,TCCCGGTGAGTTACGGAGA,0.499
9,TCCCGGGTAGTGATGGAGA,0.318
10,TCCCTATCAGTCGCTGAGA,0.41
11,TCCCTCGAAGTTGCAGAGA,0.153
12,TCCCATTGAGTGTTGGAGA,0.154
13,TCCCAGCTAGTTTGAGAGA,0.193
14,TCCCGTGTAGTGTGAGAGA,0.44
15,TCCCGCTAAGTTCCTGAGA,0.792
16,TCCCACCAAGTCCCTGAGA,0.386
17,TCCCTGTGAGTTGCGGAGA,0.389
18,TCCCGTCGAGTGGGCGAGA,0.129
19,TCCCTGCCAGTCTCGGAGA,0.239
20,TCCCGAATAGTAATGGAGA,0.195
21,TCCCCAGAAGTACCGGAGA,0
22,TCCCCAGTAGTCAGGGAGA,0.22
23,TCCCAGCCAGTCGAAGAGA,0.383
24,TCCCCGCTAGTATCCGAGA,0.22
25,TCCCATAAAGTTGTAGAGA,0.168
26,TCCCTGCGAGTAGAGGAGA,0.00727

row,Sequence,TetR repression strength
1,TCCCAATTAGTATAGGAGA,0.0798
2,TCCCTTTTAGTGGCGGAGA,0.206
3,TCCCGGAGAGTTTGGGAGA,0.149
4,TCCCTTGGAGTGGTAGAGA,0.172
5,TCCCAGTCAGTGGGTGAGA,0.192
6,TCCCTCGTAGTTTTTGAGA,0.352
7,TCCCGAAGAGTGGCTGAGA,0.25
8,TCCCCGCAAGTATAGGAGA,0.195
9,TCCCCATGAGTTTGGGAGA,0.183
10,TCCCGATAAGTGAGCGAGA,0.3
11,TCCCTTCAAGTTCGGGAGA,0.18
12,TCCCATGCAGTCCAAGAGA,0.286
13,TCCCGGGTAGTCAAGGAGA,0.296
14,TCCCTGTTAGTGTTAGAGA,0.344
15,TCCCAAGGAGTTGCCGAGA,0.213
16,TCCCGCTGAGTCCCAGAGA,0.193
17,TCCCGCAAAGTTGGTGAGA,0.359
18,TCCCGGTTAGTAGGAGAGA,0.199
19,TCCCGCTTAGTCCACGAGA,0.212
20,TCCCGGCGAGTTAAGGAGA,0.158
21,TCCCGCGCAGTAAGTGAGA,0.418
22,TCCCCGGTAGTTTCTGAGA,0.207
